Measurements as given in the supplement of paper PMC4967469.
The IC50 comes from the fitted curve, where viability falls to half of the control; fits outside the tested doses are given as limits. AUC is the area under the same curve over the 256-fold range up to the top dose, as a fraction; values near 1 show little effect. For some of these results: Where the top dose is marked as inferred, it was derived from the fitted curves, not read from the paper.

Assays:
Assay in all cases: Viability of human cancer cell lines after 72 h of drug (GDSC screen)
[1] = compound: C=C(c1ccc(C(=O)O)cc1)c1cc2c(cc1C)C(C)(C)CCC2(C)C [Bexarotene]; details: top dose 8 µM
Experimental: (§1)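 Human cancer cell lines in 384-well plates, medium with 10% serum, drug for 72 h over a 256-fold dose range (nine 2-fold or five 4-fold steps up to the top dose). Adherent lines were fixed and stained with the nucleic acid dye Syto60, suspension lines read with resazurin; signal relative to control wells, capped at 0 and 100%. One two-parameter sigmoid per drug and line, fitted in a mixed model over all curves with the slope shared within a line.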

[2] = compound: COc1cc(C(=O)NC2CCN(C)CC2)ccc1Nc1ncc2c(n1)N(C1CCCC1)C(C)CC(=O)N2C [NPK76-II-72-1]; details: top dose 10.24 µM; top dose inferred
Experimental: as §1

[3] = compound: COc1cc([C@@H]2c3cc4c(cc3[C@@H](O[C@@H]3O[C@@H]5CO[C@@H](C)O[C@H]5[C@H](O)[C@H]3O)[C@H]3COC(=O)[C@H]23)OCO4)cc(OC)c1O [Etoposide]; details: top dose 16 µM
Experimental: as §1

[4] = compound: COc1ccc(C(=O)CC2(O)C(=O)Nc3c(Cl)ccc(Cl)c32)cc1 [YK 4-279]; details: top dose 10 µM
Experimental: as §1

[5] = compound: Cc1ccc2nc(NCCN)c3ncc(C)n3c2c1 [BMS-345541]; details: top dose 16 µM
Experimental: as §1

[6] = compound: NC(=O)Nc1cc(-c2cccc(F)c2)sc1C(=O)N[C@H]1CCCNC1 [AZD7762]; details: top dose 2 µM
Experimental: as §1

[7] = compound: O=C(O)c1ccc(-c2c[nH]c3ncc(-c4ccccc4)cc23)cc1C1CCCC1 [GSK-650394]; details: top dose 16 µM; top dose inferred
Experimental: as §1

[8] = compound: Oc1nc(-c2ccc(C(F)(F)F)cc2)nc2c1CSCC2 [XAV 939]; details: top dose 5 µM; top dose inferred
Experimental: as §1

JHH-6 (liver, adherent)
AUC [1]: 0.941 | IC50 [1]: > 8 µM | AUC [2]: 0.943 | IC50 [2]: > 10.2 µM | AUC [3]: 0.774 | IC50 [3]: 6.36 µM | AUC [4]: 0.733 | IC50 [4]: 2930 nM | AUC [5]: 0.912 | IC50 [5]: > 16 µM | AUC [6]: 0.931 | IC50 [6]: > 2000 nM | AUC [7]: 0.792 | IC50 [7]: 7.4 µM | AUC [8]: 0.976 | IC50 [8]: > 5 µM

JHH-7 (liver, adherent)
AUC [1]: 0.909 | IC50 [1]: > 8 µM | AUC [2]: 0.9 | IC50 [2]: > 10.2 µM | AUC [3]: 0.301 | IC50 [3]: 0.288 µM | AUC [4]: 0.633 | IC50 [4]: 1410 nM | AUC [5]: 0.915 | IC50 [5]: > 16 µM | AUC [6]: 0.927 | IC50 [6]: > 2000 nM | AUC [7]: 0.583 | IC50 [7]: 1.66 µM | AUC [8]: 0.988 | IC50 [8]: > 5 µM

JHU-022 (head and neck, adherent)
AUC [1]: 0.98 | IC50 [1]: > 8 µM | AUC [2]: 0.981 | IC50 [2]: > 10.2 µM | AUC [3]: 0.871 | IC50 [3]: > 16 µM | AUC [4]: 0.806 | IC50 [4]: 6760 nM | AUC [5]: 0.952 | IC50 [5]: > 16 µM | AUC [6]: 0.496 | IC50 [6]: 122 nM | AUC [7]: 0.972 | IC50 [7]: > 16 µM | AUC [8]: 0.965 | IC50 [8]: > 5 µM

JIMT-1 (breast, adherent)
AUC [1]: 0.943 | IC50 [1]: > 8 µM | AUC [2]: 0.982 | IC50 [2]: > 10.2 µM | AUC [3]: 0.739 | IC50 [3]: 5.12 µM | AUC [4]: 0.615 | IC50 [4]: 1330 nM | AUC [5]: 0.942 | IC50 [5]: > 16 µM | AUC [6]: 0.674 | IC50 [6]: 398 nM | AUC [7]: 0.913 | IC50 [7]: > 16 µM | AUC [8]: 0.917 | IC50 [8]: > 5 µM

JJN-3 (haematopoietic neoplasm, suspension)
AUC [1]: 0.92 | IC50 [1]: > 8 µM | AUC [2]: 0.735 | IC50 [2]: 2.58 µM | AUC [3]: 0.928 | IC50 [3]: > 16 µM | AUC [4]: 0.723 | IC50 [4]: 2330 nM | AUC [5]: 0.83 | IC50 [5]: 7.64 µM | AUC [6]: 0.729 | IC50 [6]: 483 nM | AUC [7]: 0.935 | IC50 [7]: > 16 µM | AUC [8]: 0.987 | IC50 [8]: > 5 µM

JM1 (B-cell lymphoma, suspension)
AUC [1]: 0.975 | IC50 [1]: > 8 µM | AUC [2]: 0.73 | IC50 [2]: 2.58 µM | AUC [3]: 0.229 | IC50 [3]: 0.19 µM | AUC [4]: 0.822 | IC50 [4]: 4770 nM | AUC [5]: 0.778 | IC50 [5]: 5.56 µM | AUC [6]: 0.553 | IC50 [6]: 171 nM | AUC [7]: 0.884 | IC50 [7]: 13.1 µM | AUC [8]: 0.974 | IC50 [8]: > 5 µM

JURL-MK1 (chronic myeloid leukaemia, suspension)
AUC [1]: 0.931 | IC50 [1]: > 8 µM | AUC [2]: 0.618 | IC50 [2]: 1.35 µM | AUC [3]: 0.714 | IC50 [3]: 4.01 µM | AUC [4]: 0.815 | IC50 [4]: 5490 nM | AUC [5]: 0.667 | IC50 [5]: 2.9 µM | AUC [6]: 0.339 | IC50 [6]: 44.6 nM | AUC [7]: 0.835 | IC50 [7]: 10.4 µM | AUC [8]: 0.953 | IC50 [8]: > 5 µM

JVM-2 (lymphoid neoplasm, suspension)
AUC [1]: 0.979 | IC50 [1]: > 8 µM | AUC [2]: 0.969 | IC50 [2]: > 10.2 µM | AUC [3]: 0.952 | IC50 [3]: > 16 µM | AUC [4]: 0.663 | IC50 [4]: 1980 nM | AUC [5]: 0.903 | IC50 [5]: > 16 µM | AUC [6]: 0.664 | IC50 [6]: 399 nM | AUC [7]: 0.977 | IC50 [7]: > 16 µM | AUC [8]: 0.962 | IC50 [8]: > 5 µM

JVM-3 (lymphoid neoplasm, suspension)
AUC [1]: 0.985 | IC50 [1]: > 8 µM | AUC [2]: 0.869 | IC50 [2]: 9.7 µM | AUC [3]: 0.985 | IC50 [3]: > 16 µM | AUC [4]: 0.518 | IC50 [4]: 701 nM | AUC [5]: 0.912 | IC50 [5]: > 16 µM | AUC [6]: 0.467 | IC50 [6]: 102 nM | AUC [7]: 0.984 | IC50 [7]: > 16 µM | AUC [8]: 0.946 | IC50 [8]: > 5 µM

JiyoyeP-2003 (Burkitt lymphoma, suspension)
AUC [1]: 0.922 | IC50 [1]: > 8 µM | AUC [2]: 0.889 | IC50 [2]: 9.22 µM | AUC [3]: 0.661 | IC50 [3]: 2.63 µM | AUC [4]: 0.817 | IC50 [4]: 4760 nM | AUC [5]: 0.868 | IC50 [5]: 11.7 µM | AUC [6]: 0.559 | IC50 [6]: 177 nM | AUC [7]: 0.949 | IC50 [7]: > 16 µM | AUC [8]: 0.978 | IC50 [8]: > 5 µM

K2 (melanoma, adherent)
AUC [1]: 0.926 | IC50 [1]: > 8 µM | AUC [2]: 0.945 | IC50 [2]: > 10.2 µM | AUC [3]: 0.95 | IC50 [3]: > 16 µM | AUC [4]: 0.64 | IC50 [4]: 1710 nM | AUC [5]: 0.887 | IC50 [5]: > 16 µM | AUC [6]: 0.716 | IC50 [6]: 622 nM | AUC [7]: 0.931 | IC50 [7]: > 16 µM | AUC [8]: 0.98 | IC50 [8]: > 5 µM

KARPAS-45 (lymphoblastic leukaemia, suspension)
AUC [1]: 0.976 | IC50 [1]: > 8 µM | AUC [2]: 0.389 | IC50 [2]: 0.335 µM | AUC [3]: 0.933 | IC50 [3]: > 16 µM | AUC [4]: 0.68 | IC50 [4]: 1810 nM | AUC [5]: 0.491 | IC50 [5]: 0.947 µM | AUC [6]: 0.573 | IC50 [6]: 191 nM | AUC [7]: 0.833 | IC50 [7]: 8 µM | AUC [8]: 0.984 | IC50 [8]: > 5 µM

KARPAS-299 (anaplastic large cell lymphoma, suspension)
AUC [1]: 0.983 | IC50 [1]: > 8 µM | AUC [2]: 0.822 | IC50 [2]: 4.7 µM | AUC [3]: 0.735 | IC50 [3]: 4.05 µM | AUC [4]: 0.651 | IC50 [4]: 1510 nM | AUC [5]: 0.668 | IC50 [5]: 2.68 µM | AUC [6]: 0.303 | IC50 [6]: 39.2 nM | AUC [7]: 0.989 | IC50 [7]: > 16 µM | AUC [8]: 0.982 | IC50 [8]: > 5 µM

KARPAS-620 (haematopoietic neoplasm, suspension)
AUC [1]: 0.779 | IC50 [1]: 2.8 µM | AUC [2]: 0.433 | IC50 [2]: 0.433 µM | AUC [3]: 0.847 | IC50 [3]: 9.38 µM | AUC [4]: 0.83 | IC50 [4]: 5080 nM | AUC [5]: 0.863 | IC50 [5]: 10.7 µM | AUC [6]: 0.668 | IC50 [6]: 340 nM | AUC [7]: 0.962 | IC50 [7]: > 16 µM | AUC [8]: 0.985 | IC50 [8]: > 5 µM

KCL-22 (chronic myeloid leukaemia, suspension)
AUC [1]: 0.906 | IC50 [1]: 7.81 µM | AUC [2]: 0.732 | IC50 [2]: 2.57 µM | AUC [3]: 0.743 | IC50 [3]: 4.31 µM | AUC [4]: 0.668 | IC50 [4]: 1680 nM | AUC [5]: 0.856 | IC50 [5]: 9.69 µM | AUC [6]: 0.527 | IC50 [6]: 146 nM | AUC [7]: 0.831 | IC50 [7]: 7.99 µM | AUC [8]: 0.982 | IC50 [8]: > 5 µM

KELLY (neuroblastoma, adherent)
AUC [1]: 0.978 | IC50 [1]: > 8 µM | AUC [2]: 0.782 | IC50 [2]: 3.88 µM | AUC [3]: 0.794 | IC50 [3]: 6.6 µM | AUC [4]: 0.663 | IC50 [4]: 1690 nM | AUC [5]: 0.841 | IC50 [5]: 9.71 µM | AUC [6]: 0.358 | IC50 [6]: 52.8 nM | AUC [7]: 0.971 | IC50 [7]: > 16 µM | AUC [8]: 0.986 | IC50 [8]: > 5 µM
